Source: PubChem BioAssay AID1948 (National Center for Advancing Translational Sciences (NCATS), 2009)
The campaign covered roughly 110,000 compounds. About 20 (0.02%) were called active. Inconclusive means that the source gave no clear call. Such entries were picked first, then a sample of the others. The call rests on the fitted dose curve; in most records, active means well fitted activation curve with a large enough effect; inconclusive means small, poorly fitted or top-dose-only effect; inactive means no such curve, though single readings can be large or run the other way. No potency is given beside an inconclusive call; the fits are too rough.

Experiment: qHTS Assay for Compounds that Induce Erasure of Genomic Imprints;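 on activity change, positive = activation: 0% = negative control wells on the plate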
Conditions: mouse ES Peg3-LacZ reporter, beta-gal luminescence, 40 h; activity change, positive = activation: at 10.9 µM (top of the series) unless noted
From the text: qHTS Assay for Compounds that Induce Erasure of Genomic Imprints NIH Chemical Genomics Center [NCGC] NIH Molecular Libraries Screening Centers Network [MLSCN] Assay Submitter (PI): JEFFRIES, SEAN, NCGC, University of Cambridge NCGC Peg3 Imprinting Assay Overview Genomic imprinting is the epigenetic process whereby genes are expressed in a parent of origin fashion. […] Unlike some forms of epigenetic silencing that can be overcome by overexpression of transcription factors, genomic imprinting stably represses the expression of one allele despite potentially high levels of expression from the other allele. […] During mouse embryonic day 11.5 imprints are erased in PGCs so that sex specific imprints can be reestablished during gametogenesis. Embryonic germ (EG) cells can be derived from developing PGCs at embryonic day 11.5 and these cells often lack genomic imprints. […] Embryonic stem (ES) cells are a cell type similar to EG cells in phenotype and transcriptional profile, yet ES cells maintain genomic imprints. This similarity between ES and EG cells prompted us to use ES cells to look for factors which could induce imprint erasure. To investigate the stability of genomic imprinting, ES cells were derived from mice with an insertion of a LacZ-Neomycin reporter construct in the Peg3 locus. Peg3 is an imprinted locus where gene expression is restricted to the paternal allele. […] Using LacZ expression we are able to monitor the state of the Peg3 imprint. In order to dissect the mechanisms involved in imprint erasure using a forward chemical genetics approach we developed a cell based phenotype assay using an endogenous silence imprinted locus. This assay utilizes maternally inherited Peg3LacZ-Neo ES cells by monitoring the LacZ expression from the normally silent Peg3 allele. To facilitate screening, high-density feeder-free ES cell culture has been optimized so that ES cells can be grown in 1536 for over four days without feeding or washes. The assay uses a luminescence based read out for LacZ activity and is a homogenous assay optimal for HTS.
NCGC Peg3 Imprinting Assay Protocol Summary ES cell lines were derived from blastocysts taken from Peg3LacZ-Neo x129 matings. Lines were sexed and genotyped for the Peg3LacZ-Neo allele. Female cells carrying the reporter allele were used in this study. Cells were derived on a layer of mouse embryonic fibroblasts and passaged multiple times before switching to feeder free culture. Cells were maintained feeder free on gelatin coated dishes in DMEM/F12 media supplemented with 15% FBS, 2mM L-glutamine, 100 units/ml penicillin, 100ug/ml streptomycin, 0.1mM MEM nonessential amino acids, 1mM sodium pyruvate, 0.1% sodium bicarbonate, 0.1mM 2-Mercaptoethanol, and 400 units/ml leukemia inhibitory factor (LIF) at 37C with 5% CO2. The assay was performed in 1536-well format. A single luminescence read was taken at the end of the assay and the data was normalized by plate to internal negative controls. Maximum efficacy and AC50 values were calculated from dose-response data using the standard Hill equation. 1536 well plates were filled with 0.5ul of 0.1% gelatin per well, spun down and incubated for at least 30 min at 37C. The ES cells were then trypsini Peg3 1536-well assay protocol: (1)Plate 0.5ul/well 0.1% gelatin in white tissue culture treated 1536-well plates, spin and incubate at 37C for at least 30 min. (2)Add 5ul/well (300 cells) of ES cell suspension from freshly trypsinized cells and incubate at 37C, 5% CO2 for 40 hours. (3)Add 5ul/well of freshly prepared BetaGlo solution and incubate at room temperature for 5 minutes. (4)Read luminescence on the ViewLux plate reader. Keywords Genomic Imprinting, Germ Cells, Embryonic Stem Cell, DNA Methylation, Peg3, qHTS, NIH roadmap, NCGC
Potency means the concentration at half of the fitted maximal effect; tags describe the fitted curve by direction and shape.

SMILES	activity change, positive = activation	Potency
CN1C(=O)Cc2cc(S(=O)(=O)CCC(=O)Nc3ccc(Cl)cc3)ccc21	inconclusive: 45.7% [activator]	–
O=C1c2ccccc2C(=O)C1c1ccncc1	inactive: -93.5% [at 60.7 µM]	–
CC(=O)c1sc(Nc2nc3ccc(F)cc3s2)nc1C	inactive: -46.7% [at 60.7 µM]	–
FC(F)(F)c1cccc(N2CCN(c3nc4ccccc4n4cnnc34)CC2)c1	inactive: -7.56%	–
CN1CCN(CCCN2c3ccccc3Sc3ccccc32)CC1	inactive: -8.68% [at 60.7 µM]	–
CC(=O)OC1CC[C@]2(C)C(=CCC3C4CCC(C(C)CCCC(C)C)[C@]4(C)CCC32)C1 (some centres undefined)	–	inconclusive [activator, partial curve, poor fit]
CC(C)c1nc2oc3c(NCc4cccnc4)ncnc3c2c2c1CCC2	–	inconclusive [activator, single point]
COc1ccc(-n2nc(C(=O)N3CCN(c4ccccc4OC)CC3)c3c4ccccc4n(C)c3c2=O)cc1	inconclusive: 31.4% [activator]	–
Cc1ccc(C(=O)N2CCC(c3c[nH]c4ccccc34)(c3c[nH]c4ccccc34)CC2)cc1	inactive: 15.5%	–
COCCOC(=O)c1[nH]c2c(c1C)C(=O)CC(c1cc(OC)ccc1OC)C2 (centres undefined)	inactive: -14% [at 60.7 µM]	–
COC(=O)c1cc2sccc2n1Cc1ccc(F)cc1Cl	inconclusive: 43.9% [activator]	–
O=C(O)c1nn(-c2ccccc2-c2n[nH]c(=O)[nH]c2=O)c(=O)[nH]c1=O	–	inconclusive [activator, single point]
FC(F)(F)c1ccccc1-c1nc(N2CCOCC2)c2ccccc2n1	–	inconclusive [activator, single point]
Cc1cnc(CNc2cc(-c3cccc(C#N)c3)ncn2)cn1	–	inconclusive [activator, single point]
CCNc1ncc2nc(-c3cn(C)c4ccccc34)c(=O)n(CCC#N)c2n1	–	inconclusive [activator, partial curve]
COc1ccccc1OCCSc1nc(-c2ccc(C(C)(C)C)cc2)nc2cc(=O)[nH]n12	inactive: -2.93%	–
COc1cccc(CNC(=O)CCCNS(=O)(=O)c2cccs2)c1	–	inconclusive [activator, single point]
COc1cccc(NC(=O)CSc2nc(=O)[nH]c3c2CCCC3)c1	inconclusive: 30.1% [activator]	–
Cc1ccc(-n2nc3c(N4CCCC(C(=O)NCc5ccccc5C)C4)nnc(C)c3c2C)cc1 (centres undefined)	inactive: 4.74%	–
c1csc(CNc2ncncc2-c2ccoc2)c1	–	inconclusive [activator, single point]

SMILES	activity change, positive = activation	Potency
Cc1c(C(=O)N2CCOCC2)[nH]c2c1C(=O)CC(c1ccc(Cl)cc1)C2 (centres undefined)	–	inconclusive [activator, single point]
CCOC(=O)c1cc(-c2ccccc2)sc1N	inactive: 0.0812% [at 60.7 µM]	–
Cc1c(C(=O)Nc2ccc(F)cc2F)nnn1-c1ccccc1Br	inactive: -6.83%	–
Cc1ccc(/C=C(\C#N)c2nc(-c3ccc(-c4ccccc4)cc3)cs2)cc1	inactive: 3.49%	–
COc1cccc(C(=O)Nc2nc3nc(-c4ccccc4)cc(=O)n3[nH]2)c1	inactive: -11.7%	–
CCOC(=O)C1=C(C)NC(SCC(N)=O)=C(C#N)C1c1ccncc1 (centres undefined)	–	inconclusive [activator, single point]
O=C(Nc1c(C(=O)N2CCN(c3ccccc3F)CC2)oc2ccccc12)c1cccc(F)c1	inconclusive: 108% [activator]	–
CCCCn1nc(C(=O)NC2=NCCS2)c2ccccc2c1=O	–	inconclusive [activator, single point]
Cc1ccc(NC(=O)C2CCCN(S(=O)(=O)c3c(C)n[nH]c3C)C2)c(C)c1 (centres undefined)	inconclusive: 49% [activator]	–
c1ccc(-c2nnc(-c3ccccn3)nn2)nc1	inactive: -55.8% [at 60.7 µM]	–
Cc1cc(C)n(CCc2nc3c4ccccc4nc(N4CCN(c5cccc(C)c5C)CC4)n3n2)n1	inactive: 12.7%	–
CCOc1ccc(N2C(=O)c3[nH]nc(-c4ccc(OC)cc4)c3C2c2cccs2)cc1 (centres undefined)	inactive: -22.4%	–
O=c1c(-c2cccs2)nc2cnc(Oc3ccccc3)nc2n1Cc1cccs1	inactive: -2.95% [at 60.7 µM]	–
O=C1CCc2cc(S(=O)(=O)NC(C(=O)Nc3cccc(F)c3)c3ccccc3)ccc2N1 (centres undefined)	inconclusive: 117% [activator]	–
O=C(Cn1c(=O)n(Cc2nc(-c3ccccc3)no2)c(=O)c2ccccc21)Nc1cccc(Cl)c1	inconclusive: 32.5% [activator]	–
Cc1cc(N2CCC(C(=O)N(CC(C)C)CC(C)C)CC2)n2nc(C)c(-c3ccc(Cl)cc3)c2n1	inconclusive: 34% [activator]	–
CCOC(=O)C1CCCN(Cc2ccc(OC)cc2OC)C1 (centres undefined)	inactive: -7.82% [at 60.7 µM]	–
CC(C)[C@H](Nc1ncnc2nc[nH]c12)C(=O)O	–	inconclusive [activator, partial curve]
Cc1ncc(CO)c(C=O)c1O	–	inconclusive [activator, single point]
